Results published in PMC6355801, “The compound TB47 is highly bactericidal against Mycobacterium ulcerans in a Buruli ulcer mouse model” (Nature Communications, 2019).

Tested on: autoluminescent M. ulcerans 1059
Details: for mice relapsed: 24 weeks after treatment completion, 5 mice per group
Description: All animal procedures were conducted according to relevant national and international guidelines. All animal care and experimental protocols were approved by the Committee on Laboratory Animal Ethics of Guangzhou Institutes of Biomedicine and Health (GIBH), Chinese Academy of Sciences, #2017077. Serial, non-invasive, real-time monitoring of drug activity in a murine model of Buruli ulcer was used. […] The inoculum volume was 0.05 mL, containing approximately 5 to 6 log10CFU. The right hind footpads served as negative controls for observation of swelling. The lesion index was defined as follows: index 0 = normal footpad; index 1 = noninflammatory footpad swelling; index 2 = inflammatory footpad swelling; index 3 = inflammatory hind foot swelling. […] Subcutaneous route for streptomycin and oral gavage for others were used.
The MBD is defined as the lowest dose able to reduce the footpad CFU counts by 99% compared to the counts in the controls pretreatment, adopted from references[20],[21]. […] This experiment was carried out more than triplicate by detecting footpad suspension and only footpad tissue from two independent experiments were plated for CFU counts at d0 and d7 for MBD detection.

## COc1ccn2nc(C)c(C(=O)NCc3ccc(N4CCC(c5ccc(OC(F)(F)F)cc5)CC4)cc3)c2c1 [TB47]
TB47 25 mg kg^-1 daily for 5 days, one questionable
  mice relapsed: 3 mice
TB47 25 mg kg^−1 for 1 week, P < 0.01
  time-to-relapse compared with the standard regimen for 5 weeks: significantly extended
TB47 25 mg kg^−1 for 5 days
  RLUs from footpads of live mice: reached the background noise levels
TB47 50 mg kg^-1 daily for 5 days
  mice relapsed: 1 mouse
TB47 50 mg kg^−1, day 7
  M. ulcerans burden (CFU per footpad) lower than at day 0: ~ 3.9 log10
  M. ulcerans burden (CFU per footpad) lower than in mice treated with rifampin and streptomycin: ~ 2.5 log10
TB47 alone 25 mg kg^−1 daily, 5 days per week, for 2 weeks
  cure: did not produce 100% cure
TB47 alone (abstract)
  reduction of M. ulcerans burden in mouse footpads compared to the standard BU treatment regimen: more than 2.5 log10 CFU
TB47 alone at 0.8 mg kg^−1, live mouse RLU, P < 0.001
  efficacy compared with rifampin 10 + streptomycin 150 mg kg^−1: superior
TB47 doses ≥ 12.5 mg kg^−1, P > 0.05
  bioluminescence in live mice 3 days after treatment completion (day 7): indifferent from the background reading
TB47 ≥ 25 mg kg^−1, relapse monitoring
  footpad RLU after completion of treatment: could not be detected at significant levels even up to 14 weeks post completion of treatment
TB47 ≥ 25 mg kg^−1 for 5 days, at 20 to 24 weeks
  mice with relapsed M. ulcerans infection (ALI > 1): 4 to 6 out of 10 mice
Day 7, TB47 0.4 mg kg^−1
  average lesion index (ALI): 1.8 ± 1.25
Day 7, TB47 doses ≥ 12.5 mg kg^−1
  RLUs of footpad tissue: reduced to the background level
Day 7, TB47 ≥ 3.1 mg kg^−1
  average lesion index (ALI): 0
  reduction in RLU in the footpad tissue: > 2 log10
Lowest among doses evaluated, treated for 5 days
  dose exhibiting bactericidal activity: ≥ 0.4 mg/kg
Lowest dose reducing footpad CFU by 99% vs pretreatment, treated 5 days, sacrificed d7
  minimal bactericidal dose (MBD): 1.6 mg/kg

Read-outs that look alike come from different tables or passages of the source.
